Source: PubChem BioAssay AID485313 (National Center for Advancing Translational Sciences (NCATS), 2010)
The whole screen tested about 320,000 compounds, of which about 7,600 (2.4%) were called active. This list was built around the results that the source calls inconclusive (neither active nor inactive); the mix of calls is not that of the screen. The call rests on the fitted dose curve; in most records, active means well fitted activation curve with a large enough effect; inconclusive means small, poorly fitted or top-dose-only effect; inactive means no such curve, though single readings can be large or run the other way. Potencies beside an inconclusive call are fits to weak or partial responses and may not hold up.

Assay: qHTS Assay for NPC1 Promoter Activators; further: nearly all actives have a fitted effect of over 60% in size;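 on activation: reporter is driven by a mutant NPC1 promoter; % of control where 0% means no effect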
Settings: Huh7 NPC1 promoter luciferase reporter, 24 h; series mostly up to 9.22 µM; activation: at the top concentration
How it was run: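 Stable NPC1-promoter luciferase Huh7 line; cpd (DMSO) 24 h, 37 °C, 5% CO2; Amplite luciferase reagent 10 min RT; luminescence readout. qHTS format.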
Potency means the concentration at half of the fitted maximal effect; tags describe the fitted curve by direction and shape.

Potency, inconclusive:
CC(=O)c1sc(NC(=O)c2ccc(F)c(F)c2)nc1C 4.47 µM [activator, partial curve], CCCCCc1ccc(-c2ccc(/C=C/C(N)=O)cc2)nc1 2.51 µM [activator, partial curve], C=CCN(C(=O)Cc1cccs1)c1nc(-c2ccc(S(C)(=O)=O)cc2)cs1 5.62 µM [activator, single point], COc1ccc(-c2cc(C(=O)NC3CCCC3)no2)cc1OC 3.98 µM [activator, partial curve], CC(N=c1ccccn1C(=O)Nc1ccc(Cl)cc1)c1ccco1 (stereo not given) 3.98 µM [activator, partial curve, poor fit], CN(C(=O)COc1ccc(Cl)cc1Br)C1CCCCC1 5.62 µM [activator, single point], Cc1ccccc1/C=N/NC(=O)c1sccc1C 5.62 µM [activator, single point], Cc1ccc(/C=N/NC(=O)c2ccccn2)o1 2.24 µM [activator, partial curve], Cn1nccc1C(=O)Nc1ccc(Cl)cc1 5.62 µM [activator, single point], CCOC(=O)C1CCN(C(=O)c2cc(COc3ccc(OC)c4ccccc34)on2)CC1 3.16 µM [activator, single point], O=C(NC(=S)Nc1ccccc1Br)c1ccc2c(c1)OCO2 3.55 µM [activator, single point], CCc1ccc2[nH]c3nc(C)cc(C)c3c(=O)c2c1 5.62 µM [activator, single point], O=C1CC(c2ccc3c(c2)OCCO3)Oc2ccc([N+](=O)[O-])cc21 (stereo not given) 0.398 µM [activator, full curve], Cc1ccnc(NC(=O)c2ccoc2C)c1 5.62 µM [activator, single point], O=C(Nc1ccn(-c2ccccc2)n1)c1ccccc1Br 3.98 µM [activator, single point], Fc1ccc2nc(Nc3nc4c(F)cc(F)cc4s3)sc2c1 3.98 µM [activator, single point], CCC1S/C(=N/C(=O)NC2CCCCC2)NC1=O (stereo not given) 5.62 µM [activator, single point], O=c1cc(-c2ccccc2F)[nH]c2cc3c(cc12)OCO3 14.6 µM [activator, single point], O=C(NCCN1C(=O)S/C(=C\c2ccc(Cl)cc2)C1=O)c1ccc(F)c(S(=O)(=O)N2CCOCC2)c1 3.55 µM [activator, single point], CCC(=O)NCCc1nc2cc(NC(=O)c3ccccc3Cl)ccc2n1C 3.16 µM [activator, single point]

Potency, active:
CCn1ccc(C(=O)Nc2ncc(C)s2)n1 0.794 µM, Cc1ccc(-n2c(C)cc(/C=C3\SC(=O)NC3=O)c2C)cc1 2.51 µM, COc1ccc(-c2csc(Nc3ccccn3)n2)cc1OC 1.78 µM, CC(C)(C)Nc1nc(-c2ccc3c(c2)CCN3C(=O)C2CC2)cs1 1.78 µM, Cc1ccsc1/C=N\NC(=O)c1ccc2c(c1)OCO2 1.41 µM, C=CCSc1nnc(-c2ccc(Cl)cc2Cl)o1 0.708 µM, O=C(Nc1ccc2[nH]ncc2c1)c1ccccc1Cl 3.98 µM, CCN(CC)C(=O)c1ccc2c(c1[N+](=O)[O-])C(=O)c1ccccc1C2=O 2.82 µM

activation, inactive:
COc1ccc2oc(C(=O)OC/C(O)=C(\C#N)c3nc4ccccc4[nH]3)c(C)c2c1 -2.48%, O=C(Nc1nc(-c2ccc(Cl)s2)cs1)c1ccccc1 14.4%, Cc1cc(C)n2ncc(-c3cccc(Br)c3)c2n1 6.28%, COc1ccc(OCCNC(=O)Nc2cc(F)c(F)cc2Cl)cc1 -0.497%, COc1ccc(N(C(=O)c2cccc([N+](=O)[O-])c2)S(=O)(=O)c2cccs2)cc1 0.314%, COCCn1c(SCC(=O)NC2CCCC2)nnc1-c1ccco1 -7.08%, CC1CC1C(=O)N(C)CC(=O)Nc1ccc(Cl)c(C(F)(F)F)c1 (stereo not given) -1.35%, Nc1nc(SCC(=O)c2c(N)n(C3CC3)c(=O)[nH]c2=O)n[nH]1 -1.05%, O=C(/C=C/c1ccc(F)cc1)N1CCN(c2ncccn2)CC1 11.5%, Cn1c(-c2ccccc2)cc(=O)c2ccccc21 1.26%, CC1CCN(CCc2nc3cc(NC(=O)COc4ccc([N+](=O)[O-])cc4)ccc3n2C)CC1 -2.14%, COc1ccc(C)cc1NC(=O)CCCN1C(=O)NC(C)(C)C1=O -6.41%
